# Data from a compilation of properties of binary mixtures (doi:10.1021/acs.jced.2c00613).
# The densities may have been worked out from excess volumes.
# Experiment: xn = mol fraction of the nth substance listed
# Details: 100 kPa
smiles,measurement,setting,value
CN1CCN(C)C1=O + O,mass density,"283.15 K, x1 = 0.0501",1027 kg/m3
same,mass density,"283.15 K, x1 = 0.1",1048 kg/m3
same,mass density,"283.15 K, x1 = 0.1801",1069 kg/m3
same,mass density,"283.15 K, x1 = 0.2598",1079 kg/m3
same,mass density,"283.15 K, x1 = 0.339",1082 kg/m3
same,mass density,"283.15 K, x1 = 0.4952",1080 kg/m3
same,mass density,"283.15 K, x1 = 0.7413",1073 kg/m3
same,mass density,"283.15 K, x1 = 0.8184",1070 kg/m3
same,mass density,"283.15 K, x1 = 0.899",1068 kg/m3
same,mass density,"283.15 K, x1 = 0.9488",1066 kg/m3
same,mass density,"288.15 K, x1 = 0.1801",1065 kg/m3
same,mass density,"288.15 K, x1 = 0.2598",1074 kg/m3
same,mass density,"288.15 K, x1 = 0.339",1077 kg/m3
same,mass density,"288.15 K, x1 = 0.4201",1077 kg/m3
same,mass density,"288.15 K, x1 = 0.4952",1076 kg/m3
same,mass density,"288.15 K, x1 = 0.5807",1073 kg/m3
same,mass density,"288.15 K, x1 = 0.6594",1071 kg/m3
same,mass density,"288.15 K, x1 = 0.7413",1068 kg/m3
same,mass density,"288.15 K, x1 = 0.8184",1066 kg/m3
same,mass density,"288.15 K, x1 = 0.899",1063 kg/m3
same,mass density,"288.15 K, x1 = 0.9488",1062 kg/m3
same,mass density,"288.15 K, x1 = 1",1060 kg/m3
same,mass density,"293.15 K, x1 = 0.0501",1023 kg/m3
same,mass density,"293.15 K, x1 = 0.1",1042 kg/m3
same,mass density,"293.15 K, x1 = 0.1801",1061 kg/m3
same,mass density,"293.15 K, x1 = 0.339",1073 kg/m3
same,mass density,"293.15 K, x1 = 0.4201",1072 kg/m3
same,mass density,"293.15 K, x1 = 0.4952",1071 kg/m3
same,mass density,"293.15 K, x1 = 0.5807",1069 kg/m3
same,mass density,"293.15 K, x1 = 0.6594",1066 kg/m3
same,mass density,"293.15 K, x1 = 0.8184",1061 kg/m3
same,mass density,"293.15 K, x1 = 0.899",1059 kg/m3
same,mass density,"293.15 K, x1 = 0.9488",1057 kg/m3
same,mass density,"293.15 K, x1 = 1",1056 kg/m3
same,mass density,"298.15 K, x1 = 0.0501",1021 kg/m3
same,mass density,"298.15 K, x1 = 0.1801",1057 kg/m3
same,mass density,"298.15 K, x1 = 0.2598",1065 kg/m3
same,mass density,"298.15 K, x1 = 0.339",1068 kg/m3
same,mass density,"298.15 K, x1 = 0.4201",1068 kg/m3
same,mass density,"298.15 K, x1 = 0.4952",1066 kg/m3
same,mass density,"298.15 K, x1 = 0.5807",1064 kg/m3
same,mass density,"298.15 K, x1 = 0.6594",1062 kg/m3
same,mass density,"298.15 K, x1 = 0.7413",1059 kg/m3
same,mass density,"298.15 K, x1 = 0.8184",1057 kg/m3
same,mass density,"298.15 K, x1 = 0.899",1054 kg/m3
same,mass density,"298.15 K, x1 = 0.9488",1053 kg/m3
same,mass density,"303.15 K, x1 = 0.0501",1021 kg/m3
same,mass density,"303.15 K, x1 = 0.1",1039 kg/m3
same,mass density,"303.15 K, x1 = 0.1801",1057 kg/m3
same,mass density,"303.15 K, x1 = 0.2598",1065 kg/m3
same,mass density,"303.15 K, x1 = 0.339",1068 kg/m3
same,mass density,"303.15 K, x1 = 0.4201",1068 kg/m3
same,mass density,"303.15 K, x1 = 0.4952",1066 kg/m3
same,mass density,"303.15 K, x1 = 0.5807",1064 kg/m3
same,mass density,"303.15 K, x1 = 0.7413",1059 kg/m3
same,mass density,"303.15 K, x1 = 0.8184",1057 kg/m3
same,mass density,"303.15 K, x1 = 0.9488",1053 kg/m3
same,mass density,"303.15 K, x1 = 1",1052 kg/m3
same,mass density,"308.15 K, x1 = 0.0501",1015 kg/m3
same,mass density,"308.15 K, x1 = 0.1",1032 kg/m3
same,mass density,"308.15 K, x1 = 0.1801",1048 kg/m3
same,mass density,"308.15 K, x1 = 0.2598",1056 kg/m3
same,mass density,"308.15 K, x1 = 0.339",1058 kg/m3
same,mass density,"308.15 K, x1 = 0.4952",1057 kg/m3
same,mass density,"308.15 K, x1 = 0.6594",1052 kg/m3
same,mass density,"308.15 K, x1 = 0.7413",1050 kg/m3
same,mass density,"308.15 K, x1 = 0.8184",1048 kg/m3
same,mass density,"308.15 K, x1 = 0.899",1045 kg/m3
same,mass density,"308.15 K, x1 = 0.9488",1044 kg/m3
same,mass density,"313.15 K, x1 = 0.1",1028 kg/m3
same,mass density,"313.15 K, x1 = 0.1801",1044 kg/m3
same,mass density,"313.15 K, x1 = 0.2598",1051 kg/m3
same,mass density,"313.15 K, x1 = 0.339",1054 kg/m3
same,mass density,"313.15 K, x1 = 0.4201",1054 kg/m3
same,mass density,"313.15 K, x1 = 0.4952",1052 kg/m3
same,mass density,"313.15 K, x1 = 0.5807",1050 kg/m3
same,mass density,"313.15 K, x1 = 0.7413",1045 kg/m3
same,mass density,"313.15 K, x1 = 0.8184",1043 kg/m3
same,mass density,"313.15 K, x1 = 0.899",1041 kg/m3
same,mass density,"313.15 K, x1 = 1",1038 kg/m3
same,mass density,"318.15 K, x1 = 0.0501",1010 kg/m3
same,mass density,"318.15 K, x1 = 0.1",1025 kg/m3
same,mass density,"318.15 K, x1 = 0.339",1049 kg/m3
same,mass density,"318.15 K, x1 = 0.4201",1049 kg/m3
same,mass density,"318.15 K, x1 = 0.4952",1047 kg/m3
same,mass density,"318.15 K, x1 = 0.5807",1045 kg/m3
same,mass density,"318.15 K, x1 = 0.6594",1043 kg/m3
same,mass density,"318.15 K, x1 = 0.8184",1039 kg/m3
same,mass density,"318.15 K, x1 = 0.899",1037 kg/m3
same,mass density,"318.15 K, x1 = 0.9488",1035 kg/m3
same,mass density,"318.15 K, x1 = 1",1034 kg/m3
same,mass density,"323.15 K, x1 = 0.0501",1007 kg/m3
same,mass density,"323.15 K, x1 = 0.1",1021 kg/m3
same,mass density,"323.15 K, x1 = 0.1801",1035 kg/m3
same,mass density,"323.15 K, x1 = 0.2598",1042 kg/m3
same,mass density,"323.15 K, x1 = 0.4201",1044 kg/m3
same,mass density,"323.15 K, x1 = 0.4952",1043 kg/m3
same,mass density,"323.15 K, x1 = 0.7413",1036 kg/m3
same,mass density,"323.15 K, x1 = 0.8184",1034 kg/m3
same,mass density,"323.15 K, x1 = 0.899",1032 kg/m3
same,mass density,"323.15 K, x1 = 0.9488",1031 kg/m3
same,mass density,"323.15 K, x1 = 1",1029 kg/m3
same,mass density,"328.15 K, x1 = 0.0501",1004 kg/m3
same,mass density,"328.15 K, x1 = 0.1",1017 kg/m3
same,mass density,"328.15 K, x1 = 0.1801",1030 kg/m3
same,mass density,"328.15 K, x1 = 0.2598",1037 kg/m3
same,mass density,"328.15 K, x1 = 0.339",1039 kg/m3
same,mass density,"328.15 K, x1 = 0.4201",1039 kg/m3
same,mass density,"328.15 K, x1 = 0.4952",1038 kg/m3
same,mass density,"328.15 K, x1 = 0.5807",1036 kg/m3
same,mass density,"328.15 K, x1 = 0.6594",1034 kg/m3
same,mass density,"328.15 K, x1 = 0.7413",1032 kg/m3
same,mass density,"328.15 K, x1 = 0.8184",1030 kg/m3
same,mass density,"328.15 K, x1 = 0.899",1028 kg/m3
same,mass density,"328.15 K, x1 = 0.9488",1026 kg/m3
same,mass density,"328.15 K, x1 = 1",1025 kg/m3
same,mass density,"333.15 K, x1 = 0.0501",1000 kg/m3
same,mass density,"333.15 K, x1 = 0.1",1013 kg/m3
same,mass density,"333.15 K, x1 = 0.1801",1026 kg/m3
same,mass density,"333.15 K, x1 = 0.2598",1032 kg/m3
same,mass density,"333.15 K, x1 = 0.339",1034 kg/m3
same,mass density,"333.15 K, x1 = 0.4952",1033 kg/m3
same,mass density,"333.15 K, x1 = 0.5807",1031 kg/m3
same,mass density,"333.15 K, x1 = 0.6594",1029 kg/m3
same,mass density,"333.15 K, x1 = 0.7413",1027 kg/m3
same,mass density,"333.15 K, x1 = 0.899",1023 kg/m3
same,mass density,"333.15 K, x1 = 0.9488",1022 kg/m3
same,mass density,"333.15 K, x1 = 1",1021 kg/m3
same,mass density,"338.15 K, x1 = 0.0501",997 kg/m3
same,mass density,"338.15 K, x1 = 0.1",1009 kg/m3
same,mass density,"338.15 K, x1 = 0.1801",1021 kg/m3
same,mass density,"338.15 K, x1 = 0.2598",1027 kg/m3
same,mass density,"338.15 K, x1 = 0.339",1029 kg/m3
same,mass density,"338.15 K, x1 = 0.4201",1029 kg/m3
same,mass density,"338.15 K, x1 = 0.4952",1028 kg/m3
same,mass density,"338.15 K, x1 = 0.5807",1026 kg/m3
same,mass density,"338.15 K, x1 = 0.6594",1025 kg/m3
same,mass density,"338.15 K, x1 = 0.7413",1023 kg/m3
same,mass density,"338.15 K, x1 = 0.8184",1021 kg/m3
same,mass density,"338.15 K, x1 = 0.899",1019 kg/m3
same,mass density,"338.15 K, x1 = 0.9488",1018 kg/m3
same,mass density,"338.15 K, x1 = 1",1016 kg/m3
same,mass density,"343.15 K, x1 = 0.0501",993 kg/m3
same,mass density,"343.15 K, x1 = 0.1",1005 kg/m3
same,mass density,"343.15 K, x1 = 0.1801",1017 kg/m3
same,mass density,"343.15 K, x1 = 0.2598",1022 kg/m3
same,mass density,"343.15 K, x1 = 0.339",1024 kg/m3
same,mass density,"343.15 K, x1 = 0.4201",1024 kg/m3
same,mass density,"343.15 K, x1 = 0.4952",1023 kg/m3
same,mass density,"343.15 K, x1 = 0.5807",1022 kg/m3
same,mass density,"343.15 K, x1 = 0.6594",1020 kg/m3
same,mass density,"343.15 K, x1 = 0.7413",1018 kg/m3
same,mass density,"343.15 K, x1 = 0.8184",1016 kg/m3
same,mass density,"343.15 K, x1 = 0.899",1014 kg/m3
same,mass density,"343.15 K, x1 = 0.9488",1013 kg/m3
same,mass density,"343.15 K, x1 = 1",1012 kg/m3
O + CN1CCN(C)C1=O,mass density,"283.15 K, x2 = 0",1000 kg/m3
same,mass density,"293.15 K, x2 = 0",998 kg/m3
same,mass density,"313.15 K, x2 = 0",992 kg/m3
same,mass density,"318.15 K, x2 = 0",990 kg/m3
same,mass density,"323.15 K, x2 = 0",988 kg/m3
same,mass density,"328.15 K, x2 = 0",986 kg/m3
same,mass density,"333.15 K, x2 = 0",983 kg/m3
same,mass density,"338.15 K, x2 = 0",981 kg/m3
same,mass density,"343.15 K, x2 = 0",978 kg/m3
